Assay results: paper PMC12136788
This is one part of the list.

T1: UNK ZnF1-6 (called full-length) (human, UniProt Q9C0B0 30-357)
T1 sequence: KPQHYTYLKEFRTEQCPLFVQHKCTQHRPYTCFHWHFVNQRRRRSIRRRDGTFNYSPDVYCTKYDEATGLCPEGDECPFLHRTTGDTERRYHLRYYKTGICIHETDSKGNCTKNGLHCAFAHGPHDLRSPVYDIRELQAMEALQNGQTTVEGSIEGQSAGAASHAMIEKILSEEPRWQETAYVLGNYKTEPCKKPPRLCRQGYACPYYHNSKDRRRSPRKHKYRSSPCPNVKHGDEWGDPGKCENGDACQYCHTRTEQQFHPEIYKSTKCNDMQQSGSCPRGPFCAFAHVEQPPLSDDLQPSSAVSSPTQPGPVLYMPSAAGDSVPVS

B1: chr1:214641902:214642005:+|CDS|ENSG00000117724|unk|FALSE|bound_elsewhere (ssRNA)
RNA: GGGAGUUCUACAGUCCGACGAUCAGAAAUCAAUGUAAUUUUAAACCUCAGAUGGAUCUUGAAGUUAAAGAAAUUUCUCUAGAUAGUUAUAAUGCGCAGUUGGUGCAAUUAGAAGCUAUGCUAAGAAAUAAGGAAUUAAAACUUCAACAGAGGAUUGAGCAUCA
B2: ENSG00000070961:be:win_3801|3pUTR|ENSG00000070961|bound_else_gene|NA|bound_elsewhere_windowed (ssRNA)
RNA: GGGAGUUCUACAGUCCGACGAUCUUAUUUUUUUAAAAAAAAAAAAGCAAAGCUUUCUGCCAGACUGAGGGUGCUUUUUGGGGGGUGGGAGAAAUGAACUGACAGAUAAACAGUAACUCAGCGUAAGUGACCUGUGGAUCAUCACAACAGAGGAUUGAGCAUCA
B3: chr16:23068607:23068708:-|CDS|ENSG00000103404|msi1|FALSE|unique (ssRNA)
RNA: GGGAGUUCUACAGUCCGACGAUCCCUGCCACAAGGAGCCCUUUCCCACCUGGGAAGAGCAGGACUUCAGACCACAGCUUGAGUAGAGAGGGCUCCAGACAAAGCUUGGGUUCUGACAGAGCCAGCGCCACCUCCACCUCCAAACAACAGAGGAUUGAGCAUCA
B4: chr7:77749912:77750028:+|CDS|ENSG00000187257|unk|total|mutant (ssRNA)
RNA: GGGAGUUCUACAGUCCGACGAUCUGCAGCUUUCUACGUGAUGGGUAUUGUUCAUGGGGCAGCUACUUAUUUACCUGACUUUUCCGACUAUUUUUCAUUUAAUUUUCCCAAUUCACCAGUGAAAAUGGAGAUAUUGGGAAAGAACAACAGAGGAUUGAGCAUCA
B5: chr14:74902662:74902763:+|3pUTR|ENSG00000119689|msi1|FALSE|unique (ssRNA)
RNA: GGGAGUUCUACAGUCCGACGAUCCCCCUGGGGACCAUGUGAUUAAGUUCCUAUCUUUUGAAAGUUUGUUCUGCAGAGACUUCUAGGAGGAUGCUGUGCCUCCCAAGCUCAGAGCAGCCUCUGUCCUGGCUGUGCACAUUCUCCCAACAGAGGAUUGAGCAUCA
B6: chr14:80199969:80200157:-|3pUTR|ENSG00000211448|msi1|total|mutant (ssRNA)
RNA: GGGAGUUCUACAGUCCGACGAUCUUUAUGAUUUCUUGUGAUGUAUUCUUUUAUGAAAUUAACAAGAACUCAUUAUUUUGAGGCCGAGGAAAAUCAAUGCUUUAUCUGAUAUGCUGAGAAAUUAUCCGAUUGCCAAUACUCAUGCAACAGAGGAUUGAGCAUCA
B7: chr10:58277235:58277315:+|CDS|ENSG00000122873|msi1_unk|FALSE|overlapping (ssRNA)
RNA: GGGAGUUCUACAGUCCGACGAUCUAAAGAUCAUCGAAAUAAAGCUAUGAUAAACCUUCACAUCCAGAAAGACAACCCCAAGAUAGUACAUGCUUUUGACAUGGAGGAUUUGGGAGAUAAAGCUGUGUACUGCCGUUGUUGGAGCAACAGAGGAUUGAGCAUCA
B8: chr22:30522798:30525066:-|three_prime_utr|ENSG00000214491|control|control|control (ssRNA)
RNA: GGGAGUUCUACAGUCCGACGAUCGCUACACCGUGGAGGUACUGCUCCCAGACCAAACCUUCAUGGAGAAGAUGGAGAAAUUCUAGGUGAACCUCAUGGUCCCCACACCCUCCUCUUUGAUCUCUGAAUCCACAAUGAGUUCACCAACAGAGGAUUGAGCAUCA
B9: ENSG00000124766:be:win_1901|3pUTR|ENSG00000124766|bound_else_gene|NA|bound_elsewhere_windowed (ssRNA)
RNA: GGGAGUUCUACAGUCCGACGAUCUUAUUUUGCUUCUUGGUCAAGAAAGGAGGGGAGAACCCAGCGCACCCCUCCCCCCCUUUUUUUAAACGCGUGAUGAAGACAGAAGGCUCCGGGGUGACGAAUUUGGCCGAUGGCAGAUGUCAACAGAGGAUUGAGCAUCA
B10: chrX:130230552:130230660:-|CDS|ENSG00000056277|unk|FALSE|unique (ssRNA)
RNA: GGGAGUUCUACAGUCCGACGAUCAUCAGAACGUCCAUGUGAUGAAGACAAGACUGAUUCAGAGACAGGAAAGUUGAUCAUGUUAGUCAAUGAGUUUUAUUAUGGAAGGCAUGAAGGAGUCACUGAGAAAGAGCCAAAGACUUACAACAGAGGAUUGAGCAUCA
B11: ENSG00000136451:be:win_701|CDS|ENSG00000136451|bound_else_gene|NA|bound_elsewhere_windowed (ssRNA)
RNA: GGGAGUUCUACAGUCCGACGAUCGCAGUGUUUGUGGGAAAGGCUUCUCAAGGCCUGACCACUUAAGCUGUCAUGUAAAACAUGUCCAUUCAACAGAAAGACCCUUCAAAUGCCAAACGUGCACUGCUGCCUUUGCCACCAAAGCAACAGAGGAUUGAGCAUCA
B12: chr2:27133116:27133337:-|CDS|ENSG00000138073|control|control|control (ssRNA)
RNA: GGGAGUUCUACAGUCCGACGAUCACCCAGCACGAGGGGCUAGAACUCAGGGUAGAGAAUUUGCAGGCGGUGCAGACAGACUUUAGCUCCGAUCCACUGCAGAAAGUUGUGUGCUUCAACCACGAUAAUACCCUGCUUGCCACUCAACAGAGGAUUGAGCAUCA
B13: chr4:123402332:123402450:+|CDS|ENSG00000164056|unk|total|mutant (ssRNA)
RNA: GGGAGUUCUACAGUCCGACGAUCGACGAAGGGGAUUCCUAUUCAGAUAAUCCUUGCUCCUGUUCACAAUCACACUGCUGCUCCCGAUACCUGUGUAUGGGAGCCAUGUCUUUAUUUUUACCUUGCUUACUCUGUUAUCCUCCUCAACAGAGGAUUGAGCAUCA
B14: ENSG00000198589:be:win_7201|CDS|ENSG00000198589|bound_else_gene|NA|bound_elsewhere_windowed (ssRNA)
RNA: GGGAGUUCUACAGUCCGACGAUCGAGAGUGAAUUUGUUUCCUGCCAGCUUCACCAAUGGAUUGAUCUCAUUUUUGGCUAUAAACAGCAAGGACCAGAAGCUGUCCGAGCCCUCAAUGUGUUCUAUUACUUGACCUAUGAAGGACAACAGAGGAUUGAGCAUCA
B15: ENSG00000109099:stop:overlap|stop_codon|ENSG00000109099|stop_codon|NA|stop_codon (ssRNA)
RNA: GGGAGUUCUACAGUCCGACGAUCCAUUAGAUAAGUCAGACAGAGCCCAAGAGACAACUUCAGUAUUUCUUAAAGACAAGAGUUAGCACUUUGGAGAUGCAAGCCGUGGAAGAGUGGGGCAAGAUAAUUAAGGAUCCUGGACCUCAACAGAGGAUUGAGCAUCA
B16: chr2:165759335:165759570:-|CDS|ENSG00000115339|control|control|control (ssRNA)
RNA: GGGAGUUCUACAGUCCGACGAUCUCUGUUGGCCAGAAUAGCUGAGAACUACACGGCUGUCGUAAGUCCAGAUAUUGCAUCCAUAGAUCUGAACACGUUUGAAUUCAACAAACCUUCUCCUUAUGGAAGUAACCAUAACCGUGGCAACAGAGGAUUGAGCAUCA
B17: chr17:80295660:80295761:+|CDS|ENSG00000173821|msi1|FALSE|bound_elsewhere (ssRNA)
RNA: GGGAGUUCUACAGUCCGACGAUCGAGUAAACUGAAAACAGGCCUGAUUGUCCUUUUUGUAGUGGAAAAAAUUGAGCUUUUAUUAGAAGGCAGCCUGGACUGGUUGUGUCACCUCCUAACCUCAGAUGCCAGCUCACCAGAUGACAACAGAGGAUUGAGCAUCA
B18: ENSG00000150457:stop:overlap|stop_codon|ENSG00000150457|stop_codon|NA|stop_codon (ssRNA)
RNA: GGGAGUUCUACAGUCCGACGAUCCAGAUUUAGAAAGCUCUGAUCUGGUGGAUCAGACUGAAGGCUGCCAGCCUGUGUACGUGUAGAUGGGGGCCAGGCACCCCCACCACUCGCUGCCUCCCAGGUCAGGGUCCCGGAGCCGGUCAACAGAGGAUUGAGCAUCA
B19: chr12:29502561:29502662:-|3pUTR|ENSG00000133687|msi1|total|mutant (ssRNA)
RNA: GGGAGUUCUACAGUCCGACGAUCUCUUAACAAUGAUGUAUGGCACAAUUGGUUGGUUGAGGCUAUCAUUCCAUGAUUACAAACCGGUGGUUAUGUGGGGUGGUUUUGCACUUGUGGCAAUUGGACUGCAAUUUGGCCUUAAAACAACAGAGGAUUGAGCAUCA
B20: chr17:3714672:3714773:-|3pUTR|ENSG00000083457|msi1_unk|total|mutant (ssRNA)
RNA: GGGAGUUCUACAGUCCGACGAUCUUUGCAUUACUUUUUCCUUCAGGAUGAUCCCGAGCAGCAUGGAGCUGUUGGCCGAAUAUCCGUUUUUAACCAUACAUUGUCCCAAAAGUGUCUGUGCAUUGUGCAAAAAGUAAACUCCGGCAACAGAGGAUUGAGCAUCA
B21: chr8:38142699:38144272:-|three_prime_utr|ENSG00000147465|control|control|control (ssRNA)
RNA: GGGAGUUCUACAGUCCGACGAUCGGAAGCCUGCAAGUCUAAGAUCUCCAUCUGGUGACAGUGGGAUGGGUGGGGUUCGUGUUUAGAGUAUGACACUAGGAUUCAGAUUGGUGAAAGUUUUUAGUACCAAGAAAACAGGGAUGACAACAGAGGAUUGAGCAUCA
B22: chr12:62383855:62383964:+|CDS|ENSG00000135655|unk|total|mutant (ssRNA)
RNA: GGGAGUUCUACAGUCCGACGAUCGGCCGGACGUUUUGCACCUCAGUUCUCUGGAUAUCAGCAGCAAGACUGUCAAGAACUGUCCGCUUUCCUAUCCGAUGGAUUACAUGAGGAUUUGAACCGAAUCCGGAAAAAACCAUAUAUCAACAGAGGAUUGAGCAUCA

target: T1, UNK ZnF1-6 (called full-length); assay: nsRBNS (natural sequence RNA bind-n-seq); RBNS binding buffer (assumed for nsRBNS): 25 mM Tris pH 7.5, 150 mM KCl, 3 mM MgCl2, 0.01% Triton X-100, 500 ug/ml BSA, 20 U/ml SUPERase-In, 4 C; UNK is unkempt and MSI1 is Musashi-1; names of the RNAs are library labels; protein concentration not given here; high values mean tight binding

Row | Binder | binding signal
1 | B1 | 0.497 enrichment R
2 | B2 | 0.778 enrichment R
3 | B3 | 0.738 enrichment R
4 | B4 | 0.466 enrichment R
5 | B5 | 0.455 enrichment R
6 | B6 | 0.395 enrichment R
7 | B7 | 0.446 enrichment R
8 | B8 | 0.762 enrichment R
9 | B9 | 0.793 enrichment R
10 | B10 | 0.93 enrichment R
11 | B11 | 0.461 enrichment R
12 | B12 | 0.666 enrichment R
13 | B13 | 0.585 enrichment R
14 | B14 | 0.478 enrichment R
15 | B15 | 0.407 enrichment R
16 | B16 | 0.399 enrichment R
17 | B17 | 0.639 enrichment R
18 | B18 | 0.715 enrichment R
19 | B19 | 0.494 enrichment R
20 | B20 | 0.373 enrichment R
21 | B21 | 1.51 enrichment R
22 | B22 | 0.544 enrichment R
